# Experimental data published in PubChem BioAssay AID2112 (National Center for Advancing Translational Sciences (NCATS), 2009).
# Where “and” joins values, the source holds several entries; their conditions need not be identical. Equal entries are not always repeated. The whole screen tested about 240,000 compounds, of which about 15 (0.006%) were called active. Inconclusive results, whose numbers are uncertain, are shown with a selection of clear calls. The call rests on the fitted dose curve; in most records, active means well fitted inhibition curve with a large enough effect; inconclusive means small, poorly fitted or top-dose-only effect, or effect the other way, or another doubt; inactive means no such curve, though single readings can be large or run the other way. A potency beside an inconclusive call is a rough fit, not a confirmed value.
# Molecular target: Lysosomal alpha-glucosidase (Homo sapiens) (UniProt P10253)
# Assay: qHTS Assay for Inhibitors and Activators of Human alpha-Glucosidase From Spleen Homogenate;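 on activity change, negative = inhibition: 0% = enzyme with vehicle and -100% = no enzyme basal signal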
# Conditions: 4-MU-alpha-glucoside fluorescence; series mostly up to 79.9 µM; activity change, negative = inhibition: at the top concentration
# Excerpt: NIH Chemical Genomics Center [NCGC] NIH Molecular Libraries Probe Production Centers Network [MLPCN] MLPCN Grant: R03 MH084841-01 Assay Submitter (PI): Wei Zheng NCGC Assay Overview: Alpha-glucosidase is responsible for the hydrolysis of terminal, non-reducing 1,4-linked alpha-D-glucose residues, which releases alpha-D-glucose. It is a lysosomal hydrolase that is required for the degradation of a small percentage (1-3%) of cellular glycogen in humans. Deficiency of this enzyme results in glycogen-storage disease type II (GSDII), also referred to as Pompe disease, an autosomal recessive disorder. Structurally normal glycogen is accumulated in the lysosomes and cytoplasm in affected patients, primarily in muscle tissues. Excessive glycogen storage within lysosomes may interrupt normal functioning of other organelles and leads to cellular injury. In turn, this leads to enlargement and dysfunction of the entire organ involved (eg: cardiomyopathy and muscle weakness). It has been reported that the improper folding and trafficking of alpha-glucosidase resulting from genetic mutations may account for a significant number of Pompe patients. […] We optimized this alpha-glucosidase assay in 1536-well plate format for identification of novel small molecule inhibitors or activators with structures other than the sugar analogs in order to develop new pharmacological chaperones. In particular, this assay is directed towards discovering compounds active in a more natural setting, tissue homogenate, that may have been missed by screens of the purified enzyme under more stringent conditions.
# NCGC Assay Protocol Summary: This is a fluorogenic enzyme assay with 4-methylumbelliferyl-alpha-D-glucopyranoside as the substrate and human spleen homogenate containing alpha-glucosidase as the enzyme preparation. Upon hydrolysis of this fluorogenic substrate, the resulting product, 4-methylumbelliferone (which excites at 365 nm and emits at 440 nm) can be detected by a fluorescence plate reader. Data were normalized to the controls for basal activity (without enzyme) and 100% activity (with enzyme). The AC50 values were determined from concentration-response data modeled with the standard Hill equation. Assay buffer: 50 mM citric acid (titrated with potassium phosphate to pH 5.0), 0.01% Tween-20 (pH 5.0 is an optimal condition for this enzyme assay) 1536-well assay protocol for the alpha-glucosidase from human spleen homogenate: (1) Add 2 ul/well spleen homogenate (1 ug) (2) Add 23 nL compounds in DMSO solution. The final titration was 0.5 nM to 58 uM. (3) Add 2 ul of substrate (1 mM final) (4) Incubate at 37 C for 40 min (5) Add 2 ul stop solution (1M NaOH and 1M Glycine mixture, pH 10) (6) Detect the assay plate in a ViewLux plate reader (PerkinElmer) with Ex=365 nm and Em=440nm. Keywords: Alpha-glucosidase, Pompe Disease, pharmacological chaperone, chaperone therapy, high throughput screening, alpha-glucosidase inhibitor, MLSMR, MLSCN, NIH Roadmap, qHTS and NCGC
# Potency means the concentration at half of the fitted maximal effect; tags describe the fitted curve by direction and shape.
Compound,Potency,"activity change, negative = inhibition"
Cc1cc2c(cc1C)-c1nnnn1C(C)(C)C2,"inconclusive: 39.8 µM [inhibitor, partial curve, poor fit]",
Cc1cc(NCc2ccco2)nc2cc(O)ccc12,"inconclusive: 25.1 µM [activator, single point]",
CCN(CC)C(=O)c1ccc(/C=C/c2c[nH]c3ccccc23)[n+](C)c1,"inconclusive: 39.8 µM [inhibitor, single point]",
Cc1c(-c2cccc(NC(=O)c3ccco3)c2)nc2ncccn12,"inconclusive: 35.5 µM [activator, single point]",
CC[C@H](C)[C@H](NC(=O)[C@H](Cc1ccc(O)cc1)NC(=O)[C@H](Cc1cnc[nH]1)NC(=O)[C@H](CCCNC(=N)N)NC(=O)[C@H](CC(C)C)NC(=O)[C@H](C)NC(=O)[C@H](CO)NC(=O)[C@H](Cc1ccc(O)cc1)NC(=O)[C@H](Cc1ccc(O)cc1)NC(=O)[C@H](CCCNC(=N)N)NC(=O)[C@H](C)NC(=O)[C@H](CCSC)NC(=O)[C@H](CC(=O)O)NC(=O)[C@H](CCC(=O)O)NC(=O)[C@H](C)NC(=O)[C@@H]1CCCN1)C(=O)N[C@@H](CC(N)=O)C(=O)N[C@@H](CC(C)C)C(=O)N[C@H](C(=O)N[C@H](C(=O)N[C@@H](CCCNC(=N)N)C(=O)N[C@@H](CCC(N)=O)C(=O)N[C@@H](CCCNC(=N)N)C(=O)N[C@@H](Cc1ccc(O)cc1)C(N)=O)[C@@H](C)O)[C@@H](C)CC,,inactive: -2.96%
O=c1oc2c(CN3CCOCC3)c(O)c(Cl)cc2c2c1CCC2,"inconclusive: 35.5 µM [activator, partial curve]",
CC(C)Cn1c(-c2cccs2)nc2nc3ccccc3nc21,"inconclusive: 28.2 µM [activator, single point]",
CCCCC(NS(=O)(=O)c1ccc(C)cc1)C(=O)Oc1ccc2c3c(c(=O)oc2c1)CCC3 (centres undefined),"inconclusive: 31.6 µM [activator, partial curve]",
Oc1ccccc1N1CCN(c2nc(-c3cccs3)nc3ccccc23)CC1,,inactive: 5.97%
C=CCOc1ccc(CNn2c(C)n[nH]c2=S)cc1OC,"inconclusive: 2.82 µM [inhibitor, full curve, poor fit]",
Cn1c(=O)c2c(nc(Br)n2CCSc2ncccn2)n(C)c1=O,"inconclusive: 0.178 µM [inhibitor, full curve, poor fit]",
CCOP(=O)(OCC)c1nc(-c2cccc3ccccc23)oc1NCCc1ccc(OC)cc1,"inconclusive: 39.8 µM [activator, single point]",
COCCCn1c(-c2cccs2)nc2nc3ccccc3nc21,"inconclusive: 35.5 µM [activator, partial curve]",
CCN(CC)Cc1c(O)c(Cl)cc2c(C)cc(=O)oc12,"inconclusive: 35.5 µM [activator, partial curve]",
COc1ccc(-c2cc3nc(C)cc(N)n3n2)cc1,,inactive: 0.864%
S=C(NCCc1ccccc1)Nc1cccc2cnccc12,,inactive: 1.83%
O=C(Cc1ccc2c(c1)OCCO2)N1CCN(S(=O)(=O)c2ccccc2C(F)(F)F)CC1,,inactive: 5.66%
C=CCNC(=O)c1c(N)n(-c2cccc(S(N)(=O)=O)c2)c2nc3ccccc3nc12,"inconclusive: 35.5 µM [activator, partial curve]",
CCNc1ccc(C(=O)OCC(=O)NCCN2C(=O)CSC2=O)cc1[N+](=O)[O-],,inactive: -0.535%
CSCC[C@@H]1NC(=O)C/C=C\[C@@H](C)COC(=O)[C@@H](C)COC1=O,,inactive: -3.61% [at 17.4 µM]
CCc1ccc(-c2cc(C(=O)NCc3ccco3)c3ccccc3n2)s1,"inconclusive: 31.6 µM [activator, single point]",
C#CCCCO/N=C1/C[C@@H](O)[C@@H](O)[C@@H]2[C@@H]3C(=O)N(c4cccc(Oc5ccccc5)c4)C(=O)[C@H]3CC[C@H]12,,inactive: 0.567% [at 17.4 µM]

Compound,Potency,"activity change, negative = inhibition"
Cc1ccc(NS(=O)(=O)c2cccc3nsnc23)cc1,,inactive: 0.776%
COc1cc2nc(N3CCN(C(=O)C4CCCO4)CC3)nc(N)c2cc1OC (centres undefined),"inconclusive: 31.6 µM [activator, partial curve] and inconclusive: 35.5 µM [activator, partial curve]",
Nc1c(C(=O)NCc2ccc3c(c2)OCO3)c2nc3ccccc3nc2n1CCCN1CCOCC1,"inconclusive: 35.5 µM [activator, single point]",
CCc1ccc(CNc2ccc(O)cc2)cc1,,inactive: -5.26%
CN(Cc1ccccc1)Cc1c[nH]c2ccccc12,"inconclusive: 25.1 µM [inhibitor, partial curve]",
O=[N+]([O-])c1cc(Cl)ccc1N1CCN(c2ccccc2O)CC1,,inactive: -5.54%
CC(O)c1cccc2cc(C(O)CNC(C)(C)C)oc12 (centres undefined),,inactive: 2.58%
COc1ccc(OCCSc2nnc(C)n2-c2ccccc2)cc1,"inconclusive: 31.6 µM [inhibitor, partial curve, poor fit]",
CN(C)c1ccc(-c2cc(C3C4C=CCCC4(C)C(=O)N3Cc3ccccc3)ccc2F)cc1 (centres undefined),,inactive: -4.23%
CSC(=S)N/N=C/c1ccc(Br)cc1,"inconclusive: 63.1 µM [inhibitor, partial curve, poor fit]",
O=c1c2ccccc2nc(CSc2ncnc3nc[nH]c23)n1-c1ccc(Cl)c(Cl)c1,"inconclusive: 31.6 µM [inhibitor, partial curve]",
O=C(NC1CC1)c1cc2c(s1)-c1ccccc1OC2,"inconclusive: 39.8 µM [activator, partial curve]",
CC/C(=C(\c1ccccc1)c1ccc(OCCN(C)C)cc1)c1ccc(O)cc1,,inactive: -4.35%
CCNc1cc2oc(=O)c(CN3CCOCC3)c(C)c2cc1C,"inconclusive: 35.5 µM [activator, partial curve]",
c1ccc(N2N=C(c3cccs3)CC2c2ccco2)cc1 (centres undefined),"inconclusive: 31.6 µM [activator, single point]",
C=CCNS(=O)(=O)c1nc(C)c(Cl)c(C)c1C#N,"inconclusive: 12.6 µM [inhibitor, partial curve, poor fit]",
C=CCn1c(SCC(=O)c2ccc(O)c(O)c2)nnc1-c1ccccc1OC,,inactive: -0.465%
CCCCCc1c(O)c2ccccc2[nH]c1=O,"inconclusive: 56.2 µM [inhibitor, partial curve]",
Nc1ccc(-c2nc3ccc(N)cc3o2)cc1,"inconclusive: 35.5 µM [activator, partial curve]",
O=C(NCC1CCCO1)c1coc2nc3ccccc3nc12 (centres undefined),"inconclusive: 39.8 µM [activator, single point]",
Cc1cc(C(=O)N[C@@H](c2ccccc2)[C@]2(C)C[C@H]2[C@@H](C)C(=O)Nc2ccc3ccccc3c2)n(C)n1,"inconclusive: 28.2 µM [activator, partial curve]",
Cc1cc(C)c(C(=O)Cn2cnc3cc([N+](=O)[O-])ccc3c2=O)cc1C,"inconclusive: 11.2 µM [inhibitor, partial curve]",

Compound,Potency,"activity change, negative = inhibition"
C=CCC(C)(O)C#Cc1ccccc1 (centres undefined),,inactive: -2.69%
Cc1cc(/C=C(\C#N)C(=O)N2CCOCC2)c(C)n1C1CCCC1,,inactive: -23.5%
O=C(c1cc2c(ccc3ccccc32)oc1=O)N1CCCC1,"inconclusive: 39.8 µM [activator, partial curve]",
CCCCCCCCCCCCCCC1CO1 (centres undefined),,inactive: -10.2%
O=c1c(-c2nc3ccccc3s2)cccn1Cc1ccccc1,"inconclusive: 35.5 µM [activator, partial curve]",
NC(=S)NN=C1c2cc(S(=O)(=O)N3CCOCC3)ccc2-c2ccc(S(=O)(=O)N3CCOCC3)cc21,"inconclusive: 25.1 µM [inhibitor, partial curve]",
Clc1ccc(/C=C\c2nccc3c2[nH]c2ccccc23)cc1,"inconclusive: 35.5 µM [activator, single point]",
Cc1ccccc1CN1CCN(CC(=O)NCc2ccco2)C1=O,"inconclusive: 56.2 µM [inhibitor, single point]",
CN1CCN(S(=O)(=O)c2cccc(C(=O)Nc3sc4c(c3-c3nc5ccccc5[nH]3)CCCC4)c2)CC1,,inactive: -10.5%
Cc1ccc2nc(-c3ccc(-c4ccccn4)s3)cn2c1,"inconclusive: 31.6 µM [activator, single point]",
Cc1cc(-c2nc3cccnc3s2)ccc1NS(=O)(=O)c1ccc2c(c1)OCCO2,"inconclusive: 35.5 µM [activator, single point]",
c1ccc2c(N3CCOCC3)nc(N3CCOCC3)nc2c1,"inconclusive: 50.1 µM [activator, single point]",
C/C=C/Cn1c(Br)nc2c1c(=O)n(C)c(=O)n2C,"inconclusive: 0.708 µM [inhibitor, full curve, poor fit]",
O=C(CN1CCN(C(=O)c2ccccc2)CC1)Nc1ncc(Br)cc1Br,"inconclusive: 50.1 µM [inhibitor, single point]",
CN(C)CCCNc1oc(/C=C/c2ccccc2)nc1C#N,"inconclusive: 35.5 µM [activator, partial curve]",
CCCc1cc(NCCCO)n2c(nc3ccccc32)c1C#N,"inconclusive: 35.5 µM [activator, partial curve]",
COc1cc(N/C=C(\C(C)=O)c2ccccc2)cc(OC)c1,"inconclusive: 0.398 µM [inhibitor, full curve, poor fit]",
COc1ccc(-c2nc3ccccc3n2Cc2ccccc2)cc1,,inactive: 2.72%
Cc1cc(NC(=O)c2ccc3c(c2)OCCO3)ccc1NC(=O)c1ccco1,,inactive: 0.809%
Cc1ccc(-c2nc3cnccn3c2Nc2ccc3c(c2)OCO3)o1,,inactive: -6.18%
